Assay results reported in PubChem BioAssay AID1345082 (National Center for Advancing Translational Sciences (NCATS), 2018).
Among all 94,000 compounds or so, about 4,000 (4.3%) were called active. Inconclusive means that the source gave no clear call. Such entries were picked first, then a sample of the others. Calls follow the shape of the dose curve; as a rule, active = well fitted inhibition curve with a large enough effect; inconclusive = small, poorly fitted or top-dose-only effect; inactive = no such curve, though single readings can be large or run the other way. Potencies beside an inconclusive call are fits to weak or partial responses and may not hold up.

Assay: Cytotoxic Profiling in NIH 3T3 Cell Line of Diverse Libraries Using Quantitative High-Throughput Screening; also: nearly all actives have a fitted effect of over 55% in size
Settings: NIH 3T3 viability, CellTiter-Glo ATP luminescence, 48-72 h; activity change, negative = cytotoxicity: at 96.7 µM (top of the series) unless noted; series mostly up to 96.7 µM
Outline: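 Luminescent ATP readout (CellTiter-Glo, 10 min RT) after 48 or 72 hr compound exposure of NIH 3T3 cells seeded at 400 cells/well in 1536-well format; quantitative HTS.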
% is scaled to controls: 0 for no effect and ±100 for the full control effect; potency is read from the fitted curve at half-maximal effect; tags tell the direction and shape of the fitted curve.

| Structure (SMILES) | Potency | outcome | activity change, negative = cytotoxicity |
| --- | --- | --- | --- |
| CC1(C)[C@H](Cc2cc(CN3CCOCC3)on2)C[C@@H]1N(Cc1ccco1)Cc1ccco1 | inconclusive: 56.2 µM [inhibitor, partial curve, poor fit] |  |  |
| COCCNC(=O)CN1C(=O)NC(c2ccccc2OC)C2=C1COC2=O (stereo not drawn) |  | inactive |  |
| COc1ccc(CC(=O)Nc2ccc3ncnc(N4CCCC4)c3c2)c(Cl)c1 | inconclusive: 70.8 µM [inhibitor, single point] |  |  |
| O=C(NCCCO)c1ccc(-c2ncc3cnc(-c4cccc(F)c4)cn23)cc1 | inconclusive: 56.2 µM [inhibitor, partial curve, poor fit] |  |  |
| O=C(NCc1ccc2c(c1)OCO2)[C@@H]1C[C@H](c2ccc(F)cc2)N([S+](=O)([O-])C2CC2)C1 | inconclusive: 20 µM [inhibitor, full curve] |  |  |
| CC1(c2noc(-c3cccnc3)n2)CCN(C(=O)CCC(=O)N2CC(=O)Nc3ccccc32)CC1 |  | inactive |  |
| CC(C)NC(=O)N1CC2ON=C(C(=O)N(C)C)C2C1 (stereo not drawn) |  |  | inactive: 0.831% [at 138 µM] |
| CCCc1ccc([S+](=O)([O-])N2CCC3(CC2)[C@@H](C(=O)OCC)[C@@H](O)C(=O)N3C(C)C)cc1 | inconclusive: 50.1 µM [inhibitor, partial curve, poor fit] |  |  |
| CCOc1cccc(CNC(=O)C2Cn3cccc3C(=O)N2Cc2ccccc2)c1 (stereo not drawn) | inconclusive: 50.1 µM [inhibitor, partial curve, poor fit] |  |  |
| O=C(c1cccc(Cl)c1)N1CCC2(C1)NC(=O)N(Cc1ccc(Cl)cc1)C2=O (stereo not drawn) | active: 39.8 µM |  |  |
| COc1ccc(-n2nc(C3CCN(Cc4ccccn4)CC3)[nH]c2=O)cc1 | inconclusive: 10 µM [inhibitor, full curve, poor fit] |  |  |
| CC1(Cc2ccc3c(c2)OCO3)CCCN(CC(=O)NCc2ccco2)C1 (stereo not drawn) |  |  | inactive: -24.9% |
| COCCCNC(=O)CCCN1C(=O)COc2ccc(C(=O)COc3cc(C)ccc3C)cc21 | inconclusive: 50.1 µM [inhibitor, single point] |  |  |
| CCCc1cc(CNC(=O)c2ccc(N3C[C@@H](C)O[C@@H](C)C3)nc2)on1 |  |  | inactive: -20.3% |
| COc1ccc(NC(=O)N2CCC3(CC2)CN(c2ccccc2)C3=O)cc1OC |  |  | inactive: -29.8% |
| Cn1ncc2c(C(=O)N3CCC(C#N)CC3)cc(-c3ccccc3F)nc21 | inconclusive: 39.8 µM [inhibitor, partial curve, poor fit] |  |  |
| CC(C)(C)c1coc([C@@H]2COCCN2Cc2ccc(F)cc2)n1 |  |  | inactive: -18.2% [at 138 µM] |
| COc1cccc(-c2cc3c(=O)n(CCNC(=O)c4cc(F)cc(F)c4)ccn3n2)c1 | inconclusive: 25.1 µM [inhibitor, partial curve] |  |  |
| COc1ccc(-c2cc(N3CCCC(NC(=O)c4ccc5[nH]ccc5c4)C3)n[nH]2)cc1 (stereo not drawn) | inconclusive: 44.7 µM [inhibitor, partial curve, poor fit] |  |  |
| O=C(CN1CC2CC(C1)[C@H]1CCCC(=O)N1C2)NC1CCCCC1 (stereo partly drawn) |  | inactive |  |
| Cc1ccc(C(=O)N2CCCC2C(=O)N2CCC(N3CCOCC3=O)CC2)cc1 (stereo not drawn) |  |  | inactive: -20.3% |

| Structure (SMILES) | Potency | outcome | activity change, negative = cytotoxicity |
| --- | --- | --- | --- |
| Cc1ccccc1CCC1CCCN(S(=O)(=O)c2cccnc2)C1 (stereo not drawn) | inconclusive: 31.6 µM [inhibitor, partial curve] |  |  |
| CCN(CC)C(=O)C[C@@H]1c2nc(NC(=O)c3ccc(F)cc3)sc2C[C@@H]2[C@](C)(CO)[C@H](O)CC[C@]21C | inconclusive: 79.4 µM [inhibitor, partial curve, poor fit] |  |  |
| Cc1cn2nc(C(=O)N3CCC(NC(=O)CCC4CCCC4)CC3)cc2c(=O)[nH]1 |  |  | inactive: -21.3% |
| COc1ccccc1CCC(=O)N1CCC(N2CC3CC(C2)[C@H]2CCCC(=O)N2C3)CC1 (stereo partly drawn) |  |  | inactive: -2.27% |
| O=C1CCN(CC(O)C(F)(F)F)c2cc3c(cc2CN1CC1CC1)OCO3 (stereo not drawn) | inconclusive: 50.1 µM [inhibitor, partial curve, poor fit] |  |  |
| CCn1c2c(c(=O)n1-c1ccccc1)CCN(C(=O)c1ccc(Cl)cc1)C2 | inconclusive: 11.2 µM [inhibitor, full curve, poor fit] |  |  |
| COc1ccc(-c2nc(C)nc3c2CCN(CCC(C)C)CC3)cc1 |  | inactive |  |
| COc1ccc(-c2ccnc3nc(CCc4ccccc4)nn23)cc1OC | inconclusive: 39.8 µM [inhibitor, partial curve, poor fit] |  |  |
| FC(F)(F)c1cccc(C2=NOC3(CCCN(CC4CCCC4)C3)C2)c1 (stereo not drawn) | inconclusive: 44.7 µM [inhibitor, partial curve, poor fit] |  |  |
| CNC(=O)c1cc(-c2ccc([S+](C)(=O)[O-])cc2)cc2c1OCCN2Cc1cccnc1 | active: 8.91 µM |  |  |
| CN(c1ccccc1)c1ccc2c(n1)CN(Cc1ccc(F)cc1)C(=O)CO2 | active: 89.1 µM |  |  |
| COCc1nc(C2CCCN(C(=O)Cc3cccc(OC)c3)C2)no1 (stereo not drawn) |  | inactive |  |
| CCCc1cc(C(=O)N2CCCC(Cc3ccccc3F)(C(=O)OCC)C2)n(C)n1 (stereo not drawn) | inconclusive: 20 µM [inhibitor, partial curve] |  |  |
| Cc1noc(C)c1S(=O)(=O)N1CCCCC1c1nc(CCOCC2CCCC2)no1 (stereo not drawn) | inconclusive: 44.7 µM [inhibitor, partial curve, poor fit] |  |  |
| Cc1nc(CN2Cc3nc(Nc4ccccc4)ccc3OCC2=O)cs1 | inconclusive: 112 µM [inhibitor, single point] |  |  |
| Cn1cc(CN2Cc3c(cc(N4CCOCC4)nc3-c3cccc(F)c3)C2=O)cn1 | inconclusive: 50.1 µM [inhibitor, partial curve, poor fit] |  |  |
| O=C(C[C@H]1NC(=O)c2ccccc2NC1=O)Nc1cccc(C(F)(F)F)c1 | inconclusive: 39.8 µM [inhibitor, partial curve] |  |  |
| O=C(NCc1cccc(Cl)c1)c1ccc2nnc(-c3ccoc3)n2c1 | inconclusive: 50.1 µM [inhibitor, partial curve, poor fit] |  |  |
| Cc1ccc(Nc2ccnc(N3CC4CCC(C3)N4CC(F)(F)F)n2)cc1 | active: 28.2 µM |  |  |
| N#Cc1cccc(-c2ccnc(N[C@H]3CO[C@H]4[C@@H]3OC[C@@H]4NC(=O)c3ccc4c(c3)OCO4)n2)c1 | inconclusive: 56.2 µM [inhibitor, partial curve, poor fit] |  |  |
| C=CCNC(=O)c1cccnc1N1CC2CC(C1)[C@H]1CCCC(=O)N1C2 (stereo partly drawn) | inconclusive: 4.47 µM [inhibitor, partial curve, poor fit] |  |  |

| Structure (SMILES) | Potency | outcome | activity change, negative = cytotoxicity |
| --- | --- | --- | --- |
| O=C(CCC1CCN(S(=O)(=O)c2ccc(F)cc2)CC1)NCc1nc2ccccc2[nH]1 |  |  | inactive: -44.1% |
| Cc1nn(C(=O)CCCC(=O)N2CCC(CCOc3ccccc3)C2)c2ccccc12 (stereo not drawn) | inconclusive: 70.8 µM [inhibitor, single point] |  |  |
| O=C(CCc1nc2ccccc2s1)N1CCC(Cc2noc(-c3ccc(F)cc3)n2)C1 (stereo not drawn) | inconclusive: 35.5 µM [inhibitor, partial curve] |  |  |
| F[C@@H]1CN(Cc2ccc(C(F)(F)F)cc2)C[C@@H]1OCc1nc2ccccc2[nH]1 | inconclusive: 44.7 µM [inhibitor, partial curve, poor fit] |  |  |
| O=C(C1COc2ccccc2C1)N1CCC(Cc2noc(C3CC3)n2)CC1 (stereo not drawn) | inconclusive: 39.8 µM [inhibitor, full curve, poor fit] |  |  |
| CN(C)C(=O)c1nc2sccn2c1-c1ccc(F)cc1 |  |  | inactive: -15.8% |
| C[C@H](C(=O)N1CCOCC1)C1CC[C@@]2(C)Cc3sc(-c4ccccc4)nc3[C@@H](C)[C@@H]2[C@H]1O (stereo partly drawn) | inconclusive: 56.2 µM [inhibitor, partial curve, poor fit] |  |  |
| CCOC(=O)[C@@H]1CN([S+](=O)([O-])Cc2ccccc2)[C@H]2c3cccc(F)c3O[C@@H]12 | inconclusive: 79.4 µM [inhibitor, partial curve, poor fit] |  |  |
| Cn1ccc2c(C(=O)NCc3cccnc3)nc(-c3ccc(CO)cc3)cc21 | active: 44.7 µM |  |  |
| O=C(NC1CCCC1)c1c(OCC2CC2)cc(=O)n2c1CCOCC2 |  |  | inactive: -15.5% |
| O=C(NC1CCCN(C2CCCCCC2)C1)c1ccccc1C(F)(F)F (stereo not drawn) |  | inactive |  |
| CN1c2cc(C(=O)Nc3ccc(Oc4ccccc4)cc3)ccc2C(=O)N2CCCCC21 (stereo not drawn) | inconclusive: 12.6 µM [inhibitor, full curve] |  |  |
| COc1ccccc1-c1cnc(NC(=O)c2cnccn2)c2c1CCO2 | inconclusive: 8.91 µM [inhibitor, full curve] |  |  |
| COc1ccccc1CN1C[C@@H](CO)[C@H](c2ccncc2)C1 |  |  | inactive: -20.9% |
| COc1ccc(CCNC(=O)c2c(C)noc2-c2ccc3c(c2)OCO3)cc1OC | inconclusive: 50.1 µM [inhibitor, partial curve, poor fit] |  |  |
| N#Cc1ccnc(-c2nnc3ccc(NC4CC4)nn23)c1 | inconclusive: 79.4 µM [inhibitor, partial curve] |  |  |
| CC(=O)Nc1cccc(-c2cc3c(ccn3C)c(C(=O)NCCc3cnc[nH]3)n2)c1 | inconclusive: 89.1 µM [inhibitor, partial curve, poor fit] |  |  |
| O=C1c2cccnc2OC2(CCCC2)CN1Cc1ccc2c(c1)OCO2 | inconclusive: 31.6 µM [inhibitor, partial curve] |  |  |
| Cn1nc(C2CCN(S(=O)(=O)c3cccs3)CC2)n(CCc2ccccc2)c1=O | inconclusive: 35.5 µM [inhibitor, partial curve] |  |  |
| CC(C)c1ccc(N2C(=S)N[C@H]3[C@@H](O)[C@H](O)C[C@@H](C(=O)N(C)Cc4ccccc4)[C@H]32)cc1 | active: 35.5 µM |  |  |
| C=CCNC(=O)CCc1c(C)nn(-c2ccccc2C)c1Oc1ccccc1 | inconclusive: 56.2 µM [inhibitor, partial curve, poor fit] |  |  |
